# Experimental data published in the supplement of paper PMC4166925.
# ± gives the standard deviation of the averaged measurements. The full ranking holds about 33,000 sequences; the median of “E-score (dimensionless, -0.5 to 0.5)” is about -0.046, and the highest 2% start at about 0.36. Some of the results follow.
# Test system: T1, SpTbr T-box DNA-binding domain (GST fusion)
# T1 sequence: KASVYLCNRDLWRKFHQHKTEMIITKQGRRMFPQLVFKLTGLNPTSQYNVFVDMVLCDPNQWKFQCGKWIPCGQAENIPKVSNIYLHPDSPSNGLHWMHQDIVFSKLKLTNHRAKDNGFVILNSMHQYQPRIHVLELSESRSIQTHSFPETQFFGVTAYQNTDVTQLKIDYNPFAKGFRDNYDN
# Assay: PBM E-score of 8-mer (E-score (dimensionless, -0.5 to 0.5)); Tbr is Tbrain of the sea star Patiria miniata (Pm) or the sea urchin Strongylocentrotus purpuratus (Sp); higher = stronger binding preference; most listed sequences are background and not binding sites
# Settings: the construct has about 5 more residues each side
# How it was run: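 Using the Universal PBM Analysis Suite, every ungapped 8-mer received an enrichment E-score averaged over duplicate arrays. Probe intensities came from double-stranded Universal Agilent oligonucleotide arrays incubated with 200 nM GST-fused Tbr T-box DNA-binding domain in PBS (pH 7.5). That protein was expressed in BL21 E. coli at 20 °C and purified by glutathione affinity chromatography.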
row,Sequence,PBM E-score of 8-mer
1,GAGCTAAA,-0.0145 ± 0.028
2,AAATTGAT,0.0894 ± 0.12
3,ATTTGTGA,0.181 ± 0.085
4,ATGGAAAA,-0.23 ± 0.058
5,ACCTCCAA,-0.00451 ± 0.035
6,ACGGGTCA,0.0479 ± 0.043
7,AAAGCTTT,-0.237 ± 0.075
8,AAAACAGT,-0.113 ± 0.035
9,ACAGCCCG,-0.0215 ± 0.04
10,ATAGTCTC,-0.00177 ± 0.0083
11,ACTCAGAC,0.0611 ± 0.018
12,AGTACGGA,-0.164 ± 0.002
13,AGTCTGAA,-0.149 ± 0.056
14,ACGCCTTG,0.325 ± 0.024
15,AGAGAGAA,0.0259 ± 0.048
16,AAAAGGCC,-0.103 ± 0.0052
17,CTGATGGA,-0.181 ± 0.036
18,CAATAAAA,-0.0938 ± 0.0058
19,CCGGCTGC,-0.122 ± 0.055
20,AATCTCTG,-0.0963 ± 0.053
21,AGAGGAAA,0.0297 ± 0.12
22,CTGTAGAA,-0.1531 ± 0.0011
23,GAGTCAGA,-0.221 ± 0.018
24,AACTCCGA,-0.0892 ± 0.0098
25,ACTAACAG,0.1931 ± 0.00053

row,Sequence,PBM E-score of 8-mer
1,CCAATTAA,0.00248 ± 0.048
2,AAAAACGG,-0.0287 ± 0.032
3,AGTGTTAA,0.436 ± 0.021
4,CCGTTATA,-0.0959 ± 0.051
5,ACACAGAG,0.0256 ± 0.037
6,AGGACAAT,-0.146 ± 0.055
7,ATGCATTA,-0.0389 ± 0.011
8,GATAGCAA,0.156 ± 0.0049
9,ACTGAGCC,-0.303 ± 0.016
10,CAGAGAGA,-0.036 ± 0.025
11,ATAACTGG,-0.102 ± 0.036
12,GAAGGAGA,-0.273 ± 0.03
13,AAATCCAA,-0.228 ± 0.015
14,GGAGAACA,-0.121 ± 0.018
15,CAAACCTG,0.00364 ± 0.022
16,CTAGCAAG,-0.0866 ± 0.056
17,ACAATCCG,-0.0266 ± 0.0027
18,GGTAAAAC,-0.154 ± 0.014
19,ATGGAGGA,-0.196 ± 0.022
20,CTGAGCGA,-0.0903 ± 0.098
21,AGGGCGCA,-0.0499 ± 0.024
22,GAGGCCTA,-0.113 ± 0.082
23,CACGTATC,0.134 ± 0.024
24,CAGGGTCA,-0.211 ± 0.069
25,CAAGGTGG,0.311 ± 0.015

row,Sequence,PBM E-score of 8-mer
1,CACAACGA,0.0767 ± 0.036
2,CCTTGTGA,0.145 ± 0.0077
3,CGCTGCCC,-0.0176 ± 0.073
4,CGGTTTCA,0.132 ± 0.052
5,AGCTAAGG,-0.213 ± 0.0096
6,ACCACCAC,0.0481 ± 0.094
7,AGAAATTC,-0.141 ± 0.097
8,AAATCGCA,0.285 ± 0.0084
9,CAGTGCCG,-0.083 ± 0.054
10,GCAGATTA,-0.0967 ± 0.028
11,AATTATTC,-0.121 ± 0.012
12,CGGGGTAG,-0.252 ± 0.064
13,AAAAGTAC,-0.218 ± 0.1
14,GGTTAGTA,-0.2678 ± 0.0019
15,ATGTTACA,0.0673 ± 0.018
16,CCAGATTA,-0.237 ± 0.06
17,ACTAGTTC,0.0744 ± 0.0059
18,ACCCCTTG,-0.0283 ± 0.033
19,ATATACAG,-0.0391 ± 0.012
20,GCGAACGC,0.3749 ± 0.0018
21,CAGCTTGC,0.11956 ± 5.7e-05
22,CACTGTTC,0.0947 ± 0.049
23,TAAGTTCA,-0.115 ± 0.032
24,CTAGCAGC,0.0341 ± 0.05
25,GCATCGTA,-0.118 ± 0.072

row,Sequence,PBM E-score of 8-mer
1,AGTTCGGG,0.0206 ± 0.037
2,GCAGTCTA,-0.224 ± 0.041
3,ATCTGCAG,-0.0713 ± 0.029
4,GCAGCTAA,-0.0128 ± 0.014
5,GAAATTAC,-0.0057 ± 0.029
6,CGCAGTAA,0.0214 ± 0.042
7,CGCGACCG,0.29 ± 0.031
8,GAGAGCGC,0.0438 ± 0.017
9,TCGACTCA,-0.0647 ± 0.016
10,CAAGCCGG,-0.31 ± 0.11
11,ACGCCTAT,0.33 ± 0.0036
12,AAGCTTTC,-0.0812 ± 0.024
13,TCAGCAAA,-0.173 ± 0.0059
14,ATTTCCTA,-0.0922 ± 0.049
15,AAGTTTCT,0.0712 ± 0.037
16,ATCCGTCA,0.0137 ± 0.11
17,ACGGGCGG,-0.083 ± 0.0064
18,AGCATCGG,-0.198 ± 0.033
19,GGTTTCCA,-0.102 ± 0.013
20,CGTTAGCA,0.37 ± 0.0046
21,GACGAAAA,0.112 ± 0.0081
22,AGTTAGTA,-0.0829 ± 0.011
23,ACTGCTAC,-0.196 ± 0.0054
24,AGCCGGCT,-0.257 ± 0.054
25,AGGATCTG,-0.232 ± 0.014

row,Sequence,PBM E-score of 8-mer
1,CTTAGCCC,-0.0855 ± 0.09
2,GTTGTTAA,0.339 ± 0.034
3,CTTAGCAC,0.364 ± 0.0057
4,GCTATAAA,-0.0322 ± 0.11
5,CGTTCGTA,-0.134 ± 0.018
6,ACGTACCG,-0.195 ± 0.03
7,GAATGATC,0.000375 ± 0.062
8,AGGTACCT,-0.0731 ± 0.033
9,CCTGAATC,-0.0545 ± 0.033
10,TATGGAGA,-0.189 ± 0.055
11,GCTAAGAA,0.0676 ± 0.027
12,ACCATACA,-0.111 ± 0.023
13,CGTAAGAG,-0.124 ± 0.042
14,CAATATGG,0.0399 ± 0.04
15,AACCTACG,-0.159 ± 0.083
16,GTTTTGGA,-0.252 ± 0.0065
17,CTCGACAA,0.117 ± 0.049
18,ACCCGTGG,0.0269 ± 0.0032
19,ATCGATAA,0.0824 ± 0.0096
20,CAGAGCCA,-0.0586 ± 0.012
21,ATCCTTAC,0.051 ± 0.04
22,ATAGATGA,-0.0521 ± 0.016
23,CGGGCAAA,-0.205 ± 0.039
24,AGGCTTTA,-0.204 ± 0.094
25,ACACGGAA,-0.0377 ± 0.016

row,Sequence,PBM E-score of 8-mer
1,GTGAGCCA,0.0835 ± 0.052
2,ATAAATAA,-0.291 ± 0.031
3,CAATGGAA,-0.202 ± 0.08
4,CCTCTTCA,0.0934 ± 0.006
5,ATAAGTAA,0.0719 ± 0.015
6,CGGGATCC,-0.123 ± 0.05
7,CCGTGAAA,0.245 ± 0.022
8,CTTTACTA,-0.11 ± 0.025
9,AACTTGCA,0.107 ± 0.01
10,GCCCCTGA,-0.091 ± 0.031
11,ACGGTTTG,0.0561 ± 0.011
12,AATTAGCC,-0.0279 ± 0.041
13,AGATTATG,-0.283 ± 0.046
14,AGCGTGGG,-0.0733 ± 0.038
15,ACATCATA,0.0379 ± 0.084
16,CCATCCCC,-0.154 ± 0.021
17,CACATGCG,0.149 ± 0.019
18,CTCTTAGA,-0.2544 ± 0.0022
19,TCGTCACA,0.342 ± 0.027
20,AGAAAAAC,-0.181 ± 0.062
21,CCGGTCCC,-0.161 ± 0.13
22,ATTACGAG,-0.0203 ± 0.11
23,GTAACGAC,0.0962 ± 0.061
24,TACCAAAA,-0.0696 ± 0.058
25,CATTCTTC,0.0471 ± 0.049

row,Sequence,PBM E-score of 8-mer
1,CACTAGCA,0.164 ± 0.063
2,AGATACGA,-0.202 ± 0.073
3,ATGGGCTG,-0.158 ± 0.0039
4,TCGGCCAA,-0.0802 ± 0.029
5,CGAATGGC,0.079 ± 0.051
6,CAGGGACG,0.0426 ± 0.11
7,CAGCCCAA,-0.271 ± 0.026
8,CCCACTGC,-0.0959 ± 0.098
9,GGCCACGA,-0.172 ± 0.051
10,TAGCTCCA,-0.307 ± 0.041
11,CGAACCGA,0.187 ± 0.0096
12,AGTGGCGG,0.1831 ± 0.00086
13,TCGTGCCA,0.182 ± 0.0091
14,CCACTTTC,0.0779 ± 0.016
15,AATCACCA,0.0402 ± 0.041
16,ACAGGCCC,-0.218 ± 0.066
17,AACTAAAT,-0.0624 ± 0.017
18,CTGACTGC,-0.133 ± 0.0049
19,GTGGAGGA,0.142 ± 0.022
20,GACACGCC,0.258 ± 0.0053
21,AGCTGGTA,-0.035 ± 0.048
22,CTCAGTCA,0.0569 ± 0.064
